The campaign covered roughly 48,000 compounds. About 550 (1.1%) were called active. Another 4% or so got no clear call; they are omitted. Cut-off read from the data, not from the text of the source: active = potency below about 15 µM; inconclusive = mostly about 16 µM to 33 µM; inactive = weaker than that. The list shows a part of the results.
Potency is the fitted concentration of half-maximal effect.

Chain of UniProt P04062 (P04062 whole entry, looked up): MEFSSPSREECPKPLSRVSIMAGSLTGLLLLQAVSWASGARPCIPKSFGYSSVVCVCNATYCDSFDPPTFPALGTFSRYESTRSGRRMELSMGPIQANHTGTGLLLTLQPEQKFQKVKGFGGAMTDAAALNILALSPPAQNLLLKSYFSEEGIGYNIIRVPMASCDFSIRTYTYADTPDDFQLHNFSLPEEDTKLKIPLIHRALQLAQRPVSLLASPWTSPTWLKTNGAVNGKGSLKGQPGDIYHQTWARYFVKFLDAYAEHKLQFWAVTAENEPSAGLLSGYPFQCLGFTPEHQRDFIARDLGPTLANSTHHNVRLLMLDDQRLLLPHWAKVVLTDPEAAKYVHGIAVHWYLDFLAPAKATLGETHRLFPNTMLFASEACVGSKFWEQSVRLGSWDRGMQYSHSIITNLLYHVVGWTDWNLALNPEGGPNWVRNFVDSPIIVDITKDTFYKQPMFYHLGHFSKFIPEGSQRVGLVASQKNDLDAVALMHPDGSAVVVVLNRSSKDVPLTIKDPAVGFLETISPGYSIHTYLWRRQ

The test concerns the target Lysosomal acid glucosylceramidase (Homo sapiens) (UniProt P04062). The test can be described thus: Glucocerebrosidase.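 Note: the screen sought inhibitors.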 The note with it: purified enzyme, resorufin glucoside fluorescence (screen aimed at inhibitors), 20 min. The essentials:
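Wild-type enzyme at 0.2 nM final in 50mM citric acid/KH2PO4, 10mM sodium taurocholate, 0.01% tween-20, pH 5.9, with resorufin beta-D-glucopyranoside at 30 uM final. Compounds titrated, 20 min at RT, red fluorescence read; AC50 from titration.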
For `Cc1cc(NC(=O)c2noc3c2CCCC3)n(-c2ccccc2)n1`, the Potency is inactive: > 76.9 µM. In the case of `Cc1ccc(NCC(O)C(O)C(O)CO)cc1C` (configuration not stated), the Potency is inactive: > 76.9 µM. Turning to `CN1CCN(CCCNC(=O)c2ccc(CSCc3cccc(Cl)c3)o2)CC1`, the Potency is inactive: > 76.9 µM.

Consider `N#Cc1c(N)nc(SCc2ccccc2)c(C#N)c1-c1ccco1`, for which the Potency was inactive: > 76.9 µM. Take `O=C(CSc1nc2ccccc2[nH]1)Nc1ccccc1N1CCOCC1`: the Potency was inactive: > 76.9 µM. With `O=C(CCNC(=O)Cn1ccc2ccccc2c1=O)NCCN1CCc2ccccc2C1` the figure was inactive: > 76.9 µM. On to `Cc1ccc(CNS(=O)(=O)c2ccc(C(C)(C)C)cc2)n1C`, for which the Potency was inactive: > 76.9 µM.

In the case of `CCCC(C)C(=O)Nc1ccc2c(c1)OCCO2` (configuration not stated), the Potency is inactive: > 76.9 µM. Consider `CCCCNC(=O)CC1N=C2c3ccccc3N=C(SCC(=O)Nc3cccc(C)c3)N2C1=O` (configuration not stated), for which the Potency is inactive: > 76.9 µM. Consider `CCCS(=O)(=O)N1CCCC(C(=O)NCCCN(C)Cc2ccccc2)C1` (configuration not stated), for which the Potency is inactive: > 76.9 µM. The figure for `O=C(N1CCCCC1)C12CC3CC(C1)CC(C(=O)N1CCCCC1)(C3)C2` is inactive: > 76.9 µM; for `CCOC(=O)CC(=O)CSc1ncnc2c1oc1ccccc12` it is inactive: > 76.9 µM; for `CCOCCCn1c(=S)[nH]c2cc(C(=O)NCCOC)ccc2c1=O` it is inactive: > 76.9 µM. Regarding `CCOc1ccccc1-n1c(COc2ccc(C)cc2)nnc1SCC(N)=O`, the Potency was inactive: > 76.9 µM. On to `COC(=O)C1=C(C)N=C2SCCC(=O)N2C1c1cc(Br)ccc1OC` (configuration not stated), for which the Potency was inactive: > 76.9 µM. The figure for `COc1ccc(-n2nc(C(=O)N3CCCCC3)c3ccccc3c2=O)cc1` is inactive: > 76.9 µM; for `O=C(O)COc1ccc(Cl)cc1CO` it is inactive: > 76.9 µM. The figure for `O=C(O)c1ccc(COc2c(F)c(F)cc(F)c2F)cc1` is inactive: > 76.9 µM; for `CCc1c(C)nc(N)n2c(SCC(=O)Nc3ccccc3OC)nnc12` it is inactive: > 76.9 µM; for `O=C(c1ccccc1-c1nc(-c2ccc(F)cc2)no1)N1CCCC1` it is inactive: > 76.9 µM. The figure for `CCCCOc1ccc(C(=O)Oc2ccc(C)nc2)cc1` is inactive: > 76.9 µM; for `N#Cc1nc(Cc2ccccc2)oc1N1CCC(C(N)=O)CC1` it is inactive: > 76.9 µM. On to `Cn1c(=O)c2c(nc(OCc3cccnc3)n2Cc2c(F)cccc2Cl)n(C)c1=O`, for which the Potency is inactive: > 76.9 µM. For the compound `O=C1c2ccccc2C(=O)N1Cc1nc(-c2ccccn2)no1`, the Potency was inactive: > 76.9 µM.

On to `Cc1noc(C)c1COc1ccc(C(=O)NCc2ccccn2)cc1`, for which the Potency was inactive: > 76.9 µM. As to `Cc1cc(C)nc(N2CCC(CNC(=O)CCc3ccccc3)CC2)n1`, the Potency was inactive: > 76.9 µM. With `O=C(OCC(=O)N(C1CCCCC1)C1CCCCC1)c1cnccn1`, the Potency was inactive: > 76.9 µM. The figure for `CCCc1cc(=O)[nH]c(SCC(=O)N(C)C2CCS(=O)(=O)C2)n1` (configuration not stated) is inactive: > 76.9 µM; for `Cc1csc(NC(=O)c2ccc(C)c(S(=O)(=O)N3CCCCC3)c2)n1` it is inactive: > 76.9 µM; for `CCOc1ccc(Nc2nc(Cc3nnc(SCC(=O)O)o3)cs2)cc1` it is inactive: > 76.9 µM. As to `CCOC(=O)c1[nH]c(COC(=O)CCCOc2ccccc2)c(C(=O)OCC)c1C`, the Potency is inactive: > 76.9 µM. As for `COC(=O)c1ccc(OCCn2cnc3ccccc3c2=O)cc1`, the Potency was inactive: > 76.9 µM. For the compound `NC(=O)c1c(NC(=O)C2CCCO2)sc2c1CCC2` (configuration not stated), the Potency is inactive: > 76.9 µM. Take `CCSc1nnc(-c2ccc(OC)cc2)o1`: the Potency was inactive: > 76.9 µM.

As for `O=C(O)c1ccc(OCC(O)Cn2cnc3ccccc32)cc1` (configuration not stated), the Potency was inactive: > 76.9 µM.

Turning to `O=C(c1cc2nc3c(c(C(F)(F)F)n2n1)CCc1ccccc1-3)N1CCN2CCCC2C1` (configuration not stated), the Potency is inactive: > 76.9 µM. The figure for `CCOC(=O)c1cccc(NC(=O)CSc2nnc(C)n2Cc2ccccc2)c1` is inactive: > 76.9 µM; for `CCOC(=O)c1cc(NC(=O)N2CCOCC2)c(C)nc1C` it is inactive: > 76.9 µM; for `CN(CC(=O)Nc1ccc(F)c(F)c1F)c1cnccn1` it is inactive: > 76.9 µM.

For `O=C(CCS(=O)(=O)c1ccc(Br)cc1)N1CCN(c2ccccc2)CC1`, the Potency is inactive: > 76.9 µM. As to `Cc1nn(Cc2ccccc2Cl)c2sc(C(=O)OC3CCCC3=O)cc12` (configuration not stated), the Potency was inactive: > 76.9 µM. Turning to `CCOC(=O)c1c(N)c(C#N)cn1-c1ccccc1`, the Potency is inactive: > 76.9 µM. As for `COc1cc2cc(CN(Cc3nnnn3C3CCCC3)C3CCCC3)c(=O)[nH]c2cc1OC`, the Potency was inactive: > 76.9 µM. With `C=CCOc1cccc(C2C(C(=O)c3ccco3)=C(O)C(=O)N2Cc2ccncc2)c1` (configuration not stated) the figure was inactive: > 76.9 µM; with `Cn1c(=O)c2c(nc(SCC(=O)NCc3ccco3)n2C)n(C)c1=O`, inactive: > 76.9 µM; with `CCOC(=O)c1cc2c(=O)n3ccccc3nc2n(CCCOC)c1=NC(=O)c1cccnc1`, inactive: > 76.9 µM. Take `O=S(=O)(CCN(CCS(=O)(=O)C(F)(F)F)CC1CCCO1)C(F)(F)F` (configuration not stated): the Potency is inactive: > 76.9 µM. With `Cc1ccc(-n2c(Cc3cccn3C)nnc2SCC(=O)Nc2cc(C)on2)cc1` the figure was inactive: > 76.9 µM; with `COC(=O)c1ccccc1NC(=O)Nc1ccc(C(=O)N2CCCC2)cc1`, inactive: > 76.9 µM; with `O=C1C2C3C=CC(C3=C3CCCCC3)C2C(=O)N1Cc1ccccc1` (configuration not stated), inactive: > 76.9 µM.

Regarding `O=C(Nc1ccccc1Cl)c1c(F)c(F)c(F)c(F)c1F`, the Potency was inactive: > 76.9 µM.

As for `Cc1[nH]c(=O)[nH]c1CN1CCCCC1`, the Potency was inactive: > 76.9 µM. Consider `O=C(c1n[nH]c(=O)c2ccccc12)N1CCN(c2ccccc2Cl)CC1`, for which the Potency is inactive: > 76.9 µM. Consider `Cc1cc(=O)n(C)c(=O)n1CCCCCN1CCCC1`, for which the Potency was inactive: > 76.9 µM.

Regarding `O=C(c1ccccc1NS(=O)(=O)c1cccs1)N1CCOCC1`, the Potency is inactive: > 76.9 µM. `Cc1cc(C)cc(Nc2ccc(C(=O)O)cc2N)c1`: the Potency was inactive: > 76.9 µM. As for `CCn1c(SCC(=O)c2[nH]c(C)c(C(C)=O)c2C)nnc1-c1ccncc1`, the Potency is inactive: > 76.9 µM.

With `COc1ccc(C)cc1NC(=O)CNC(=O)Cn1ccc2ccccc2c1=O`, the Potency was inactive: > 76.9 µM. With `Cn1c(=O)cc(OCCCC(=O)Nc2ccc3c(c2)OCCO3)c2ccccc21` the figure was inactive: > 76.9 µM. With `C=CCn1c(SCCC#N)nnc1-c1ccncc1` the figure was inactive: > 76.9 µM.

On to `Cc1cc2cc(CNC(=O)CCC(=O)O)ccc2[nH]1`, for which the Potency was inactive: > 76.9 µM. Take `CCOc1ccc2nc(NC(=O)CSc3nc4cccnc4n3C)sc2c1`: the Potency was inactive: > 76.9 µM. Turning to `CC1C(c2ccccc2)N(C)CCC12NC(=O)NC2=O` (configuration not stated), the Potency was inactive: > 76.9 µM. As to `Cc1nc2ncnn2c(N2CCCC(C(=O)Nc3ccc4c(c3)CCC4)C2)c1C` (configuration not stated), the Potency was inactive: > 76.9 µM. As for `CCOC(=O)c1cc(NC(=O)C2CCCO2)cc(C(=O)OCC)c1` (configuration not stated), the Potency was inactive: > 76.9 µM.

In the case of `COc1ccc(-n2nnnc2-c2cccc(OC)c2)cc1`, the Potency was inactive: > 76.9 µM. With `O=C(Cn1cnc2c(cnn2-c2ccccc2)c1=O)NCc1ccccc1` the figure was inactive: > 76.9 µM; with `CCN(C(=O)CSc1ncn[nH]1)c1cccc2ccccc12`, inactive: > 76.9 µM. Consider `CCOC(=O)CSc1nnc(CNC(=O)c2cccs2)n1-c1ccccc1`, for which the Potency is inactive: > 76.9 µM. As for `COc1cccc(-n2nnc3c(=O)n(CC(=O)OCc4ccccc4)cnc32)c1`, the Potency was inactive: > 76.9 µM. Regarding `CCN(CC)C(=O)C1CCN(CC2CC=CCC2)CC1` (configuration not stated), the Potency is inactive: > 76.9 µM. In the case of `O=C(NCc1cccnc1)C1CC(=O)N(c2ccc(Cl)cc2)C1` (configuration not stated), the Potency was inactive: > 76.9 µM. As for `Cc1cc(C)n(-c2cc(=O)n(C)c(=O)n2C)n1`, the Potency is inactive: > 76.9 µM. On to `COc1cccc(-n2ccnc2SCC(=O)Nc2cc(OC)ccc2OC)c1`, for which the Potency was inactive: > 76.9 µM. The figure for `CCCc1cc(=O)[nH]c(SCC(=O)Nc2cc3c(cc2C(C)=O)OCO3)n1` is inactive: > 76.9 µM; for `CCOC(=O)C1CCCN(Cc2ccccc2OCC)C1` (configuration not stated) it is inactive: > 76.9 µM. For `O=C(NCc1ccccc1)c1ccc(OC2CSC2)cc1`, the Potency was inactive: > 76.9 µM. Consider `COc1ccc2[nH]c(C)c(C(=O)CN(C)C)c2c1`, for which the Potency entry was “inactive”. For the compound `CCOC(=O)CN(C(=O)CSc1nnc(CNc2ccc(F)cc2)o1)c1ccccc1`, the Potency was inactive: > 76.9 µM. With `Cc1cc(C)nc(Nc2ccc(N3CCCC3)cc2)n1` the figure was inactive: > 76.9 µM; with `COc1ccc(NC(=O)CN(C)S(=O)(=O)c2cccs2)cc1`, inactive: > 76.9 µM. Consider `CCCC(=O)Nc1ccc(NC(=O)CCc2ccccc2)cn1`, for which the Potency was inactive: > 76.9 µM. On to `O=C(NC1CCCCC1)C1CCCN1C(=O)NCc1ccccc1` (configuration not stated), for which the Potency is inactive: > 76.9 µM.

As to `CCCn1c2c(c(O)c(C(=O)Nc3ccccn3)c1=O)CCCC2`, the Potency is inactive: > 76.9 µM. In the case of `N#Cc1nc(COc2ccccc2)oc1N1CCOCC1`, the Potency is inactive: > 76.9 µM. Turning to `Cc1ccnc(NS(=O)(=O)c2ccc(NC(=O)C3CCCNC3=O)cc2)n1` (configuration not stated), the Potency is inactive: > 76.9 µM. With `COc1ccccc1N1CCN(C(=O)c2c(-c3c(Cl)cccc3Cl)noc2C)CC1`, the Potency is inactive: > 76.9 µM.

As for `O=C(NC1CCCCCC1)C1c2ccccc2C(=O)N1Cc1cccnc1` (configuration not stated), the Potency is inactive: > 76.9 µM. Regarding `O=C(CCCCn1c(=O)[nH]c2ccsc2c1=O)NCc1cccnc1`, the Potency is inactive: > 76.9 µM. For the compound `O=c1c2ccccc2cnn1-c1nc2ccccc2s1`, the Potency was inactive: > 76.9 µM. `Cc1cccc(N(CC(N)=O)C2SC(=O)N(c3ccccc3)C2=O)c1` (configuration not stated): the Potency was inactive: > 76.9 µM.

In the case of `O=C(Nc1nc(-c2cccs2)c(-c2ccccc2)s1)c1ccco1`, the Potency is inactive: > 76.9 µM.
